Data on four molecules can be found in paper PMC10693172.

Chains of the proteins cited; added tags and fusions are not shown. Lines headed by an entry give the natural chain unless they say otherwise; changes in a name come on top. Residues count along the entry.
UniProt Q08211: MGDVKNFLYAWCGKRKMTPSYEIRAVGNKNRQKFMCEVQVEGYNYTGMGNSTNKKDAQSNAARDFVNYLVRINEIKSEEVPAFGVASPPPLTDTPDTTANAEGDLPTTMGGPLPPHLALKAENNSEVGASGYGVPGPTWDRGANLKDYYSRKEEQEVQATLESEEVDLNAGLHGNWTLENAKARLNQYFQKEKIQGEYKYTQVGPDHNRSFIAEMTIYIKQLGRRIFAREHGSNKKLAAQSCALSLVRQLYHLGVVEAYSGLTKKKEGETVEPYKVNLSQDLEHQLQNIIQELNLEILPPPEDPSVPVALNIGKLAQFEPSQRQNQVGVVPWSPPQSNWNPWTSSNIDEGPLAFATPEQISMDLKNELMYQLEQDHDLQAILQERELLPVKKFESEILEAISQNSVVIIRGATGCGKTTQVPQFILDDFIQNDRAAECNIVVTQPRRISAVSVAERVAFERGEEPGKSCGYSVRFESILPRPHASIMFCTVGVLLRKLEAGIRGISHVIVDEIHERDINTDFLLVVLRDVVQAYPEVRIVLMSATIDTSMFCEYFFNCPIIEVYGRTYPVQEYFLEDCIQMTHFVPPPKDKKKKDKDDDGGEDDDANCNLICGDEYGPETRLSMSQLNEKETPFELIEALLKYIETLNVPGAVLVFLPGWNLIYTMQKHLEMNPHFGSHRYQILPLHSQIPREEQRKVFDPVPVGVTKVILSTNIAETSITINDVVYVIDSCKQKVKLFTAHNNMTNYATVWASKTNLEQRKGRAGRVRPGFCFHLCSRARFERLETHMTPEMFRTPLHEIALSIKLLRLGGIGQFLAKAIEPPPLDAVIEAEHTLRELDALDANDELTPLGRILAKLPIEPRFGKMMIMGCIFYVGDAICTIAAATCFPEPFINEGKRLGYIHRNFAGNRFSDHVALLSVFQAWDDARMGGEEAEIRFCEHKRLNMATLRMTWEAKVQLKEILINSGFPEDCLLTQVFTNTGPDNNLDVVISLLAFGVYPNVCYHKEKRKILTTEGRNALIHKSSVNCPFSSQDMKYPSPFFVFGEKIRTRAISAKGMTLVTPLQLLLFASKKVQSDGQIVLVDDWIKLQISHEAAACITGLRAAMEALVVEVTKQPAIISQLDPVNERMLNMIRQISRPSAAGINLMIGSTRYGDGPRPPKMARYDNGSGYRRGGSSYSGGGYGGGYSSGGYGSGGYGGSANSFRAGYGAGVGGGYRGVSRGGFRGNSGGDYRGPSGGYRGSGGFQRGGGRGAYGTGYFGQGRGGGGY
DHX9 Myc 1, residues 1-254: residues 1-254 of Q08211
DHX9 Myc 2, residues 255-635: residues 255-635 of Q08211
DHX9 Myc 3, residues 636-1200: residues 636-1200 of Q08211

Assay [1] deals with DHX9 (DExH-box helicase 9) (human (endogenous in AGS and HGC-27)) (UniProt Q08211). The assay is described as follows: co-IP; endogenous proteins, AGS and HGC-27 lysates, DHX9 and ILF3 antibodies (Fig. 7A); anti-DHX9 co-IP from cells with DHRS4-AS1 overexpressed or knocked down, pretreated with MG132 (5 µM) for 90 min (Fig. 7G).
In assay [2] the target is DHX9 Myc 3, residues 636-1200 (UniProt Q08211). As to the kind of experiment: co-IP; lysates of HEK293 cells transfected with ILF3-Flag and DHX9-Myc constructs; co-IP performed with anti-Myc, western blot (Fig. 7B, 7C).
Assay [3] has as its target DHX9 Myc 2, residues 255-635 (UniProt Q08211). The assay is described as above.
In another assay the target is DHX9-Myc, full-length (UniProt Q08211). Described as above.
The target in assay [4] is DHX9 Myc 1, residues 1-254 (UniProt Q08211). The description is as above.

Results are given in words; binding and its absence hold for the method and conditions named. Binding seen in cells or lysates may run through a third protein. Some entries that bind do so weakly or less than the wild type. For some of these results: Where a sequence is shown, tags or fusion partners need not be part of it.

B1: ILF3 (Interleukin enhancer Binding Factor 3) (protein, UniProt Q12906 1-894)
chain: MRPMRIFVNDDRHVMAKHSSVYPTQEELEAVQNMVSHTERALKAVSDWIDEQEKGSSEQAESDNMDVPPEDDSKEGAGEQKTEHMTRTLRGVMRVGLVAKGLLLKGDLDLELVLLCKEKPTTALLDKVADNLAIQLAAVTEDKYEILQSVDDAAIVIKNTKEPPLSLTIHLTSPVVREEMEKVLAGETLSVNDPPDVLDRQKCLAALASLRHAKWFQARANGLKSCVIVIRVLRDLCTRVPTWGPLRGWPLELLCEKSIGTANRPMGAGEALRRVLECLASGIVMPDGSGIYDPCEKEATDAIGHLDRQQREDITQSAQHALRLAAFGQLHKVLGMDPLPSKMPKKPKNENPVDYTVQIPPSTTYAITPMKRPMEEDGEEKSPSKKKKKIQKKEEKAEPPQAMNALMRLNQLKPGLQYKLVSQTGPVHAPIFTMSVEVDGNSFEASGPSKKTAKLHVAVKVLQDMGLPTGAEGRDSSKGEDSAEETEAKPAVVAPAPVVEAVSTPSAAFPSDATAEQGPILTKHGKNPVMELNEKRRGLKYELISETGGSHDKRFVMEVEVDGQKFQGAGSNKKVAKAYAALAALEKLFPDTPLALDANKKKRAPVPVRGGPKFAAKPHNPGFGMGGPMHNEVPPPPNLRGRGRGGSIRGRGRGRGFGGANHGGYMNAGAGYGSYGYGGNSATAGYSQFYSNGGHSGNASGGGGGGGGGSSGYGSYYQGDNYNSPVPPKHAGKKQPHGGQQKPSYGSGYQSHQGQQQSYNQSPYSNYGPPQGKQKGYNHGQGSYSYSNSYNSPGGGGGSDYNYESKFNYSGSGGRSGGNSYGSGGASYNPGSHGGYGGGSGGGSSYQGKQGGYSQSNYNSPGSGQNYSGPPSSYQSSQGGYGRNADHSMNYQYR
Turning to B1, the binding result in assay [1] is “binds”.

B2: ILF3-Flag, full-length (protein, UniProt Q12906 1-894)
chain: B1 chain
For B2, the binding entry was “binds” in assay [2]; “no binding” in assay [3]; “binds” with DHX9-Myc, full-length; “no binding” in assay [4].

B3: ILF3 Flag 1, residues 1-378 (domain or fragment, UniProt Q12906 1-378)
chain: MRPMRIFVNDDRHVMAKHSSVYPTQEELEAVQNMVSHTERALKAVSDWIDEQEKGSSEQAESDNMDVPPEDDSKEGAGEQKTEHMTRTLRGVMRVGLVAKGLLLKGDLDLELVLLCKEKPTTALLDKVADNLAIQLAAVTEDKYEILQSVDDAAIVIKNTKEPPLSLTIHLTSPVVREEMEKVLAGETLSVNDPPDVLDRQKCLAALASLRHAKWFQARANGLKSCVIVIRVLRDLCTRVPTWGPLRGWPLELLCEKSIGTANRPMGAGEALRRVLECLASGIVMPDGSGIYDPCEKEATDAIGHLDRQQREDITQSAQHALRLAAFGQLHKVLGMDPLPSKMPKKPKNENPVDYTVQIPPSTTYAITPMKRPMEEDG
On to B3, for which the binding result with DHX9-Myc, full-length is listed as “binds”.

B4: ILF3 Flag 3, residues 592-894 (domain or fragment, UniProt Q12906 592-894)
chain: TPLALDANKKKRAPVPVRGGPKFAAKPHNPGFGMGGPMHNEVPPPPNLRGRGRGGSIRGRGRGRGFGGANHGGYMNAGAGYGSYGYGGNSATAGYSQFYSNGGHSGNASGGGGGGGGGSSGYGSYYQGDNYNSPVPPKHAGKKQPHGGQQKPSYGSGYQSHQGQQQSYNQSPYSNYGPPQGKQKGYNHGQGSYSYSNSYNSPGGGGGSDYNYESKFNYSGSGGRSGGNSYGSGGASYNPGSHGGYGGGSGGGSSYQGKQGGYSQSNYNSPGSGQNYSGPPSSYQSSQGGYGRNADHSMNYQYR
Regarding B4, in the assay with DHX9-Myc, full-length, the binding result is “binds”.
